The source of these data is the supplement of paper PMC12217912.

The labels stand for the following.
B1: TEV protease; numbered along this chain (parent)
chain: MGESLFKGPRDYNPISSSICHLTNESDGHTTSLYGIGFGPFIITNKHLFRRNNGTLVVQSLHGVFKVKDTTTLQQHLVDGRDMIIIRMPKDFPPFPQKLKFREPQREERICLVTTNFQTKSMSSMVSDTSCTFPSGDGIFWKHWIQTKDGQCGSPLVSTRDGFIVGIHSASNFTNTNNYFTSVPKNFMELLTNQEAQQWVSGWRLNADSVLWGGHKVFMVKPEEPFQPVKEATQL

This is one part of the list. Sequences were assembled here from the parent chain. Inactive controls read about 0.05.

This assay covers variants of B1. Description: raw area under fraction-flipped curve 0-4 h after induction (AUC4h, not background-subtracted), DNA-recorder readout of cleavage of the substrate (dimensionless); higher = more cleavage of the substrate by the protease variant. Particulars: temperature: 34 °C; time window: 0-4 h after rhamnose induction. The protocol:
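In vivo DNA recorder in E. coli TOP10(DE3) ΔrhaA at 34 °C. Each TEVp single-site mutant (parent TEVp 0) is paired with a single-site variant of the 7-mer TEVs (canonical ENLYFQ|S). The substrate sits between flexible linkers in a Bxb1-sfGFP-TEVs-SsrA fusion, so cleavage stabilises Bxb1 and speeds flipping of a recombination array, read by NGS. The value is the raw area under the fraction-flipped curve over 0-4 h after rhamnose induction (AUC4h), with ≥20 reads per time point. It is not background-subtracted; inactive controls average about 0.047.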
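Also: Bxb1 expression induced with 0.2% (w/v) L-rhamnose at OD600 near 0.5, cultures sampled hourly, flipped fraction per protease–substrate barcode pair counted by paired-end Illumina sequencing.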

Take MGESLFKGPRDYNPISSSICHLTNESDGHTTSLYGIGFGPFIITNKHLFRRNNGTLVVQSLHGVFKVKDTTTLQQHLVDGRDMIIIRMPKDFPPFPQKLKFREPQREERICLVTTNFQTKSMSSLVSDTSCTFPSGDGIFWKHWIQTKDGQCGSPLVSTRDGFIVGIHSASNFTNTNNYFTSVPKNFMELLTNQEAQQWVSGWRLNADSVLWGGHKVFMVKPEEPFQPVKEATQL [M125L]: the “area with substrate ENLYFAS” value came out at 0.05, the “area with substrate ENLYFCS” value came out at 0.0867, the “area with substrate ENLYFES” value turned out to be 0.0659 and the “area with substrate ENLYFFS” value came to 0.0396. The “area with substrate ENLYFIS” value came to 0.0609, the “area with substrate ENLYFKS” value is 0.0535, the “area with substrate ENLYFMS” value was 0.0673 and the “area with substrate ENLYFNS” value was determined as 0.0598. Moreover, the “area with substrate ENLYFPS” value amounted to 0.0537, the “area with substrate ENLYFTS” value stood at 0.0634, the “area with substrate ENLYFWS” value worked out at 0.0378 and the “area with substrate ENLYFYS” value came to 0.051.

Consider MGESLFKGPRDYNPISSSICHLTNESDGHTTSLYGIGFGPFIITNKHLFRRNNGTLVVQSLHGVFKVKDTTTLQQHLVDGRDMIIIRMPKDFPPFPQKLKFREPQREERICLVTTNFQTKSPSSMVSDTSCTFPSGDGIFWKHWIQTKDGQCGSPLVSTRDGFIVGIHSASNFTNTNNYFTSVPKNFMELLTNQEAQQWVSGWRLNADSVLWGGHKVFMVKPEEPFQPVKEATQL [M122P], for which the “area with substrate ENLYFAS” value is 0.0214, the “area with substrate ENLYFDS” value stood at 0.0457, the “area with substrate ENLYFES” value was 0.0475 and the “area with substrate ENLYFFS” value came to 0.0522. Besides, the “area with substrate ENLYFGS” value worked out at 0.0618, the “area with substrate ENLYFIS” value was 0.0575, the “area with substrate ENLYFKS” value turned out to be 0.056 and the “area with substrate ENLYFLS” value worked out at 0.0533. Moreover, the “area with substrate ENLYFMS” value is 0.0792, the “area with substrate ENLYFNS” value came out at 0.0518, the “area with substrate ENLYFPS” value is 0.0709 and the “area with substrate ENLYFRS” value amounted to 0.0521. For the same variant, the “area with substrate ENLYFSS” value worked out at 0.0615, the “area with substrate ENLYFTS” value was 0.0771, the “area with substrate ENLYFWS” value amounted to 0.0682 and the “area with substrate ENLYFYS” value worked out at 0.0654.

In the case of MGESLFKGPRDYNPISSSICHLTNESDGHTTSLYGIGFGPFIITNKHLFRRNNGTLVVQSLHGVFKVKDTTTLQQHLVDGRDMIIIRMPKDFPPFPQKLKFREPQREERICLVTTNFQTKSMSSMVSDTSCTDPSGDGIFWKHWIQTKDGQCGSPLVSTRDGFIVGIHSASNFTNTNNYFTSVPKNFMELLTNQEAQQWVSGWRLNADSVLWGGHKVFMVKPEEPFQPVKEATQL [F133D], the “area with substrate ENLYFAS” value was 0.0705, the “area with substrate ENLYFCS” value came to 0.0701, the “area with substrate ENLYFFS” value is 0.0661 and the “area with substrate ENLYFGS” value turned out to be 0.0638. The “area with substrate ENLYFHS” value is 0.0554, the “area with substrate ENLYFIS” value is 0.0672, the “area with substrate ENLYFKS” value stood at 0.0532 and the “area with substrate ENLYFLS” value worked out at 0.0543. For the same variant, the “area with substrate ENLYFMS” value was found to be 0.0626, the “area with substrate ENLYFNS” value is 0.0641, the “area with substrate ENLYFPS” value was found to be 0.0618 and the “area with substrate ENLYFSS” value came out at 0.0607. In addition, the “area with substrate ENLYFVS” value was 0.054, the “area with substrate ENLYFWS” value worked out at 0.0612 and the “area with substrate ENLYFYS” value came out at 0.0595.

Regarding MGESLFKGPRDYNPISSSICHLTNESDGHTTSLYGIGFGPFIITNKHLFRRNNGTLVVQSLHGVFKVKDTTTLQQHLVDGRDMIIIRMPKDFPPFPQKLKFREPQREERICLVTTNFQTKSMSSMVSDPSCTFPSGDGIFWKHWIQTKDGQCGSPLVSTRDGFIVGIHSASNFTNTNNYFTSVPKNFMELLTNQEAQQWVSGWRLNADSVLWGGHKVFMVKPEEPFQPVKEATQL [T129P], the “area with substrate ENLYFAS” value amounted to 0.072, the “area with substrate ENLYFCS” value worked out at 0.053, the “area with substrate ENLYFDS” value stood at 0.0655 and the “area with substrate ENLYFES” value was 0.0613. The “area with substrate ENLYFFS” value came to 0.131, the “area with substrate ENLYFGS” value stood at 0.0627, the “area with substrate ENLYFHS” value amounted to 0.0528 and the “area with substrate ENLYFIS” value is 0.0543. Moreover, the “area with substrate ENLYFKS” value was 0.0647, the “area with substrate ENLYFLS” value amounted to 0.0754, the “area with substrate ENLYFMS” value turned out to be 0.0801 and the “area with substrate ENLYFNS” value is 0.0584. Moreover, the “area with substrate ENLYFPS” value turned out to be 0.0478, the “area with substrate ENLYFSS” value was 0.064, the “area with substrate ENLYFTS” value is 0.0547 and the “area with substrate ENLYFVS” value worked out at 0.0618. Moreover, the “area with substrate ENLYFWS” value came to 0.0358 and the “area with substrate ENLYFYS” value turned out to be 0.0609.

Consider MGESLFKGPRDYNPISSSICHLTNESDGHTTSLYGIGFGPFIITNKHLFRRNNGTLVVQSLHGVFKVKDTTTLQQHLVDGRDMIIIRMPKDFPPFPQKLKFREPQREERICLVTTNFQTKSMSSMVSDTSCSFPSGDGIFWKHWIQTKDGQCGSPLVSTRDGFIVGIHSASNFTNTNNYFTSVPKNFMELLTNQEAQQWVSGWRLNADSVLWGGHKVFMVKPEEPFQPVKEATQL [T132S], for which the “area with substrate ENLYFAS” value is 0.0591, the “area with substrate ENLYFDS” value stood at 0.0807, the “area with substrate ENLYFES” value amounted to 0.048 and the “area with substrate ENLYFFS” value was 0.0867. In addition, the “area with substrate ENLYFIS” value is 0.0531, the “area with substrate ENLYFKS” value worked out at 0.0779, the “area with substrate ENLYFMS” value came out at 0.0837 and the “area with substrate ENLYFRS” value stood at 0.0419. Further, the “area with substrate ENLYFSS” value is 0.0596 and the “area with substrate ENLYFTS” value worked out at 0.0576.

For MGESLFKGPRDYNPISSSICHLTNESDGHTTSLYGIGFGPFIITNKHLFRRNNGTLVVQSLHGVFKVKDTTTLQQHLVDGRDMIIIRMPKDFPPFPQKLKFREPQREERICLVTTNFQTKSMSSMVSDTSCFFPSGDGIFWKHWIQTKDGQCGSPLVSTRDGFIVGIHSASNFTNTNNYFTSVPKNFMELLTNQEAQQWVSGWRLNADSVLWGGHKVFMVKPEEPFQPVKEATQL [T132F], the “area with substrate ENLYFAS” value came out at 0.0453, the “area with substrate ENLYFCS” value was determined as 0.0388, the “area with substrate ENLYFES” value was 0.0565 and the “area with substrate ENLYFHS” value came out at 0.0658. For the same variant, the “area with substrate ENLYFIS” value was 0.0523, the “area with substrate ENLYFKS” value was determined as 0.0568, the “area with substrate ENLYFMS” value was 0.0546 and the “area with substrate ENLYFNS” value amounted to 0.0532. For the same variant, the “area with substrate ENLYFPS” value worked out at 0.0538, the “area with substrate ENLYFRS” value came to 0.07, the “area with substrate ENLYFSS” value amounted to 0.0522 and the “area with substrate ENLYFTS” value is 0.0285. In addition, the “area with substrate ENLYFWS” value is 0.0473 and the “area with substrate ENLYFYS” value was determined as 0.0728.

Regarding MGESLFKGPRDYNPISSSICHLTNESDGHTTSLYGIGFGPFIITNKHLFRRNNGTLVVQSLHGVFKVKDTTTLQQHLVDGRDMIIIRMPKDFPPFPQKLKFREPQREERICLVTTNFQTKSMSSMVSDTSCYFPSGDGIFWKHWIQTKDGQCGSPLVSTRDGFIVGIHSASNFTNTNNYFTSVPKNFMELLTNQEAQQWVSGWRLNADSVLWGGHKVFMVKPEEPFQPVKEATQL [T132Y], the “area with substrate ENLYFAS” value was 0.0692, the “area with substrate ENLYFCS” value was 0.0499, the “area with substrate ENLYFFS” value was 0.068 and the “area with substrate ENLYFHS” value stood at 0.0597. In addition, the “area with substrate ENLYFIS” value worked out at 0.0262, the “area with substrate ENLYFKS” value is 0.0528, the “area with substrate ENLYFNS” value worked out at 0.0477 and the “area with substrate ENLYFPS” value came out at 0.0605. For the same variant, the “area with substrate ENLYFWS” value is 0.0521.

Turning to MGESLFKGPRDYNPISSSICHLTNESDGHTTSLYGIGFGPFIITNKHLFRRNNGTLVVQSLHGVFKVKDTTTLQQHLVDGRDMIIIRMPKDFPPFPQKLKFREPQREERICLVTTNFQTKSMSSMVSDTSCGFPSGDGIFWKHWIQTKDGQCGSPLVSTRDGFIVGIHSASNFTNTNNYFTSVPKNFMELLTNQEAQQWVSGWRLNADSVLWGGHKVFMVKPEEPFQPVKEATQL [T132G], the “area with substrate ENLYFAS” value came out at 0.0646, the “area with substrate ENLYFCS” value is 0.0602, the “area with substrate ENLYFDS” value was 0.0446 and the “area with substrate ENLYFES” value was 0.0557. Also, the “area with substrate ENLYFFS” value is 0.072, the “area with substrate ENLYFGS” value came out at 0.0898, the “area with substrate ENLYFHS” value was determined as 0.0442 and the “area with substrate ENLYFIS” value stood at 0.0573. Also, the “area with substrate ENLYFKS” value turned out to be 0.0597, the “area with substrate ENLYFMS” value amounted to 0.0608, the “area with substrate ENLYFNS” value stood at 0.0675 and the “area with substrate ENLYFPS” value turned out to be 0.0589. In addition, the “area with substrate ENLYFVS” value came to 0.0619, the “area with substrate ENLYFWS” value amounted to 0.0694 and the “area with substrate ENLYFYS” value was found to be 0.0562.

Turning to MGESLFKGPRDYNPISSSICHLTNESDGHTTSLYGIGFGPFIITNKHLFRRNNGTLVVQSLHGVFKVKDTTTLQQHLVDGRDMIIIRMPKDFPPFPQKLKFREPQREERICLVTTNFQTKEMSSMVSDTSCTFPSGDGIFWKHWIQTKDGQCGSPLVSTRDGFIVGIHSASNFTNTNNYFTSVPKNFMELLTNQEAQQWVSGWRLNADSVLWGGHKVFMVKPEEPFQPVKEATQL [S121E], the “area with substrate ENLYFAS” value was 0.0498, the “area with substrate ENLYFDS” value was 0.0354, the “area with substrate ENLYFFS” value is 0.0799 and the “area with substrate ENLYFIS” value turned out to be 0.0427. The “area with substrate ENLYFMS” value was 0.0634, the “area with substrate ENLYFNS” value turned out to be 0.0565 and the “area with substrate ENLYFPS” value came out at 0.0536.
